# Experimental data as given in publication PMC4336329 (PLoS ONE, 2015).
# The whole screen tested about 310,000 compounds, of which about 14,000 (4.5%) showed an effect of 50% or more. Effects have a minus sign here. The list shows a part of the results.
# Molecular target: human ether-à-go-go-related gene (hERG) potassium channel (human, UniProt Q12809)
# Assay: primary screen, population patch clamp on CHO cells stably expressing hERG
# 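Further: peak tail current of the secondary pulse compared with the same well before compound.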
# human ether-à-go-go-related gene (hERG) potassium channel, sequence (Q12809 whole entry, looked up): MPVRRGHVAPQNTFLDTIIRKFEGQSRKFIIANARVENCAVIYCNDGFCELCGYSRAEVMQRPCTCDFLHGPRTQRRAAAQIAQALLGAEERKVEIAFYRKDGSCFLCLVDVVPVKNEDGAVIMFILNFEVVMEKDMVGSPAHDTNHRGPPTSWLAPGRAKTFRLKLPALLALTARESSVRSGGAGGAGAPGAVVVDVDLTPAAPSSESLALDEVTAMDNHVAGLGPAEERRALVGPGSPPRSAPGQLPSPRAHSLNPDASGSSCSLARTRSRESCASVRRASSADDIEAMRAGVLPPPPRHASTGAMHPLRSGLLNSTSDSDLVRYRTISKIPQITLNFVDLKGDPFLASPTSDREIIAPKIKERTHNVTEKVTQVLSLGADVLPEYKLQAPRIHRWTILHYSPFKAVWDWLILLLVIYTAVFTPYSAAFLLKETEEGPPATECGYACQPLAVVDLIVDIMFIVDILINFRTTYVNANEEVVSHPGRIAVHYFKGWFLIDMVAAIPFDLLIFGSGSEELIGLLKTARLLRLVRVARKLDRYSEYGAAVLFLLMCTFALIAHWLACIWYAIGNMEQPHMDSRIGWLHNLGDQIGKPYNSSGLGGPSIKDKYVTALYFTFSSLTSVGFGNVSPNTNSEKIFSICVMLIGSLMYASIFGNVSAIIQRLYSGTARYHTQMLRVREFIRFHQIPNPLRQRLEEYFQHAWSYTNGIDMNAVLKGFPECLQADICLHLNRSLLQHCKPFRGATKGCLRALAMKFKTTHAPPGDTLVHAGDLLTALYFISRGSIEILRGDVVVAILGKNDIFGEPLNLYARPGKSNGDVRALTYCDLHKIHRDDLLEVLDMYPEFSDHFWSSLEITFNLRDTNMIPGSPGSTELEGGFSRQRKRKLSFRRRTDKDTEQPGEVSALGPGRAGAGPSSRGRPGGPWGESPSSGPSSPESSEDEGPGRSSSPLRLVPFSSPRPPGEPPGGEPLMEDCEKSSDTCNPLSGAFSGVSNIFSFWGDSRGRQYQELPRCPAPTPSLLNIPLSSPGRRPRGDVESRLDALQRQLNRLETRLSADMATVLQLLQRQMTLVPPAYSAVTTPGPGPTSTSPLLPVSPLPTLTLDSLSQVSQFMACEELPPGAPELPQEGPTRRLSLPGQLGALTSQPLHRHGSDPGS
row,Compound,"hERG current change (%, negative = inhibition) at 10uM"
1,COCCNC(=O)CN(C(=O)Cn1nnc2ccccc21)c1ccccc1C,22.5%
2,COc1ccc(C(=O)Nc2cc(C)ccc2NC(=O)COc2ccccc2)cc1,4.16%
3,Cl.OC(COCC1COc2ccccc2O1)CN1CCN(c2ccccc2F)CC1 (stereo not drawn),-58.9%
4,COC(=O)[C@@]1(Cc2ccc(OC)cc2)[C@@H]2C(=CC(=O)[C@H]2CC(=O)C(=O)N(C)C)CN1C(=O)c1ccccc1,-35.9%
5,O=C(N/N=C/c1ccncc1)c1cccc(NC(=O)c2ccccc2Cl)c1,-2.33%
6,O=C(Nc1ccc(-c2cc3ccccc3oc2=O)c(Cl)c1)c1cccnc1,2.92%
7,CCCCC1CCC(c2nc(-c3ccccn3)no2)CC1 (stereo not drawn),-11.2%
8,COc1ccc(S(=O)(=O)N(C)c2ccc(C(=O)Nc3cccnc3)cc2)cc1OC,9.44%
9,N/C(=N\OCc1ccc([N+](=O)[O-])cc1)c1ccncc1,-17.6%
10,O=C(c1ccc(Cl)cc1)C1CCCN(Cc2cccn2-c2cccnc2)C1 (stereo not drawn),-42%
11,CC1CC(C)(C)NC(=S)N1CCC(=O)NCc1ccc(Cl)cc1 (stereo not drawn),-15.2%
12,Cc1cc(N)n(-c2ncnc3scc(-c4ccc(Cl)cc4)c23)n1,2.62%
13,O=C(/C=C/c1ccc(O)c(O)c1)OC1C(O)CC(OC(=O)/C=C/c2ccc(O)c(O)c2)(C(=O)O)CC1O (stereo not drawn),11.1%
14,CC(=O)OCC#CCSc1nc2ccccc2n1C,8.56%
15,CCOCCc1c(O)[nH]c(=S)[nH]c1=O,11.4%
16,COc1ccc(/C=N/Nc2nncc3ccccc23)cc1,-3.41%
17,CC(C)(C)n1nc2c(c1NC(=O)c1cccc(Cl)c1)CS(=O)(=O)C2,-4.42%
18,O=C(N/N=C/c1ccc([N+](=O)[O-])o1)c1cc2ccccc2o1,-42.1%
19,Cc1ccc(C(=O)NCC(C)NC(=O)c2ccc(C)c([N+](=O)[O-])c2)cc1[N+](=O)[O-] (stereo not drawn),7.96%
20,CC(C)(C)C1CCC(=NNC(=O)CC(=O)NCc2ccccc2)CC1 (stereo not drawn),1.84%
21,C#CCOCCOCCOCCNc1nc(N2CCN(C(=O)[C@H](Cc3ccc(O)cc3)n3cc([C@@H](N)C(C)CC)nn3)CC2)nc(N2CCN(C(=O)[C@H](Cc3cc4ccccc4[nH]3)n3cc([C@@H](N)C(C)CC)nn3)CC2)n1.Cl (stereo partly drawn),-0.883%

row,Compound,"hERG current change (%, negative = inhibition) at 10uM"
1,COc1ccc(S(N)(=O)=O)cc1C(=O)NC1CCCc2ccccc21 (stereo not drawn),7.58%
2,COc1ccc(C)cc1-n1nnnc1SCc1cc(=O)n2cc(C)ccc2n1,-51.1%
3,O=C(Nc1nc2ccccc2[nH]1)c1ccccc1,14.5%
4,OCC1(CCOc2ccccc2)CCN(Cc2cn[nH]c2-c2ccccc2)CC1,-74.4%
5,COC(=O)Cn1cc(C#N)c2ccccc21,0.537%
6,Cc1c(C2=CCN(S(=O)(=O)c3ccc(Br)cc3)CC2)c2ccccc2n1C,13.9%
7,CC(C)(C)Nc1nc(Oc2ccc(=O)[nH]n2)nc(N2CCOCC2)n1,-9.07%
8,CC(C)c1nc(CNC(=O)CCc2nnc(-c3ccsc3)o2)cs1,-2.35%
9,Cc1ccc(NC(=O)CSCC#N)cc1Cl,-3.66%
10,S=c1[nH]nc(-c2cccnc2)n1/N=C/c1ccco1,4.27%
11,O=C(CCCSc1nc(-c2ccco2)cc(C(F)(F)F)n1)NCc1cccs1,-1.45%
12,NC(=O)CC(NC(=O)Cc1ccc(Br)cc1)c1ccc(NCc2cc(F)ccc2F)c([N+](=O)[O-])c1 (stereo not drawn),-6.46%
13,COc1cc(NC(=O)c2cncc(-c3ccc(C#N)cc3)c2)cc(C(=O)Nc2cccc(C(F)(F)F)c2)c1,0.953%
14,CC1CN(C(=O)C2(C)CC2(Cl)Cl)CC(C)O1 (stereo not drawn),5.62%
15,CCOc1cccc(-c2c(C(=O)N/N=C/c3ccsc3)nnn2-c2nonc2N)c1,20.4%
16,COCCN(CC(=O)Nc1cccc(C)c1C)C(=O)Cc1sc(C)nc1-c1ccc(F)cc1,-2%
17,Cc1noc(C)c1S(=O)(=O)N1CCC(C(=O)N2CCN(c3ccc(F)cc3)CC2)CC1,-41.4%
18,Cc1ccccc1NC(=O)Cc1nc(COC(=O)c2ccccn2)cs1,-15.8%
19,O=C(CN1CCCC1=O)NC1CCCc2c1cnn2-c1cc(F)cc(F)c1 (stereo not drawn),5.86%
20,NC(=O)NC(=O)CSc1nc2sc(-c3ccccc3)cc2c(=O)n1-c1ccccc1,4.69%
21,COCc1[nH][nH]c(=O)c1C=Nc1ccc(Oc2ccccc2)cc1,-26.7%

row,Compound,"hERG current change (%, negative = inhibition) at 10uM"
1,O=C(NC1CCCc2ccccc21)C1CCN(C(=O)c2sccc2-n2cccc2)CC1 (stereo not drawn),-23%
2,CCOc1ccc(C(=O)NCCN2CCCC2)cc1.Cl,-40.6%
3,COc1cc(CNC(=O)CCCC(=O)c2ccccc2)cc(OC)c1OC,10.8%
4,Cc1ccc(NC(=O)/C=N/OCC(=O)NCc2ccccc2Cl)cc1,2.92%
5,CCCOc1ccc(C(=O)Nc2ccc(N3CCN(C(C)=O)CC3)cc2)cc1,5.39%
6,Cc1ccc(C(=O)c2c[nH]c(C(=O)NCc3cccnc3)c2)cc1,-15%
7,COc1ccc(N2CCC(CNC(=O)Nc3ccc(Cl)cc3)C2)cc1 (stereo not drawn),11.5%
8,O=C(OCC(=O)N1CCCC1=O)c1ncc(Cl)c(Cl)c1Cl,0.304%
9,CCN(CC)S(=O)(=O)c1ccc(N2CCOCC2)c(NC(=O)c2ccc(C#N)cc2)c1,-34.3%
10,CCCCCn1c(=O)c(C(=O)Nc2ccccn2)c(O)c2ccccc21,26.4%
11,CCOc1cc(C2NC(=O)NC(C)=C2C(=O)OCc2ccccc2)ccc1O (stereo not drawn),-16.6%
12,CCN(Cc1ccncc1)C(=O)CCc1nnc(CCc2ccccc2OC)o1,-4.64%
13,N#Cc1c(N)oc(-c2ccc3c(c2)OCO3)c1-c1ccc2c(c1)OCO2,-6.64%
14,O=C(CSc1n[nH]c(=O)n1-c1ccccc1)Nc1ccccc1,5.91%
15,Cc1cccc(C)c1OCC(=O)NCC1COc2ccccc2O1 (stereo not drawn),-27.8%
16,Cc1ccc(C(=O)OC(C)C(=O)NC2CCCCC2C)cc1S(=O)(=O)N1CCCCC1 (stereo not drawn),-9.95%
17,CC(C)N(C(=O)Cn1cc(SCC(=O)NCC2CCCO2)c2ccccc21)C(C)C (stereo not drawn),-41.6%
18,CCOC(=O)c1cccc(NC(=O)/C=C/c2ccc([N+](=O)[O-])cc2)c1,-17.2%
19,COc1ccc(Nc2nc(-c3ccccc3)c(C(=O)Nc3cccnc3)s2)cc1,-8.53%
20,CCCCCCCn1c2c(c(=N)c3ccccc31)CCC2.I,-81.4%
21,CC1(C)CC(=O)C=C(c2ccc(F)nc2)C1,9.88%

row,Compound,"hERG current change (%, negative = inhibition) at 10uM"
1,C#CCOCCOCCOCCNc1nc(N2CCOCC2)nc(N2CCN(C(=O)CCCCCCCCCCNC(=O)[C@@H](CCSC)n3cc(CCO)nn3)CC2)n1,-19.6%
2,CC1CCCN(CCCN2C(=O)C3C(C(=O)Nc4cccc(Cl)c4)C4C=CC3(O4)C2C(=O)NC2CCCCC2)C1 (stereo not drawn),1.52%
3,CCOC(=O)C(=O)N=Nc1c(O)n(C)c2ccccc12,18.9%
4,COc1ccccc1NC(=O)c1ccc(N2CC3CC(C2)c2cccc(=O)n2C3)c(NC(=O)c2ccncc2)c1 (stereo not drawn),6.49%
5,CC1CCCN(c2ccc(C(=O)Nc3ccc4c(c3)OCO4)cc2[N+](=O)[O-])C1 (stereo not drawn),-2.94%
6,COc1cc(C(=O)Nc2ccccc2N2CCCCC2)cc(OC)c1OC,-6.57%
7,CC(C)C(=O)Nc1ccc(C(=O)NNC(=O)C(c2ccccc2)c2ccccc2)cc1,-0.323%
8,Cc1sc2ncnc(N/N=C/c3cccc(O)c3)c2c1C,-61.9%
9,COCC(=O)NC(C)c1nc2ccccc2[nH]1 (stereo not drawn),-2.57%
10,CSCCC(NC(=O)c1ccccc1Br)C(=O)Nc1ccc(C)cc1 (stereo not drawn),-3.11%
11,CCOC(=O)COc1ccc([N+](=O)[O-])cc1,-5.07%
12,CNS(=O)(=O)c1ccc2c3c(cccc13)C(=O)N2,9.73%
13,CCCC(=O)C1=C(O)C(C(=O)OC)C(C)(C)CC1=Nc1ccc(OC)cc1 (stereo not drawn),-48.7%
14,CN(CC(=O)Nc1ccccc1Cl)C(=O)CCc1nc2ccccc2c(=O)[nH]1,-32.2%
15,Cc1ccnc(SCC(=O)c2cccc([N+](=O)[O-])c2)n1,-5.67%
16,CN(C)C1=NCCN1CCC1CCCCC1,0.705%
17,COc1ccc(N2CCN(C(=O)c3cc(C)oc3C)CC2)cc1,12.7%
18,c1ccc(CCn2nnnc2C(c2cccs2)N2CCOCC2)cc1 (stereo not drawn),-1.9%
19,COc1ccccc1Oc1cn[nH]c1-c1ccc(OCC(=O)NN)cc1O,19.9%
20,O=C(CSc1ncc(C(F)(F)F)cc1Cl)N1CCN(S(=O)(=O)c2ccc3ccccc3c2)CC1,-1.53%
21,CCN1C(=O)N[C@H](c2ccc(Br)cc2)C(C(C)=O)=C1C,5.94%
